Source: the supplement of paper PMC3334620
Over roughly 33,000 sequences, “E-score (-0.5 to 0.5)” has its median near -0.01; the highest 2% begin near 0.26. Some of the results follow.

Biological target: Ste12 (UniProt P13574)
Test: PBM E-score (8-mer binding enrichment) (E-score (-0.5 to 0.5)); higher = stronger / more preferred TF binding; most listed sequences are background and not binding sites
Conditions: protein concentration: 200 nM; construct: GST-DNA-binding domain
Procedure, shortened: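 For each ungapped eight-base word taken together with its reverse complement, the Universal PBM Analysis Suite assigned an E-score. Binding data came from GST-tagged yeast transcription factors, applied at about 100-200 nM, on universal all-10-mer Agilent arrays made double-stranded by primer extension. Fluorescent anti-GST marked bound protein, and scans were normalised with masliner.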

Sequence	PBM E-score
AGCGATGG	-0.128
AAATGCTG	0.0301
CACAGGCC	-0.051
GGGCACAC	-0.0766
CTGGAATC	0.0307
TCATTGAA	0.0621
GAGCGGGA	-0.0205
CATTTCGA	-0.046
AAATTATA	0.227
CATCTGGC	-0.104
CATAGCCC	-0.159
ATAAACTG	0.302
TAGAATAA	0.253
CCGGAAGG	-0.0255
AACTATGC	0.0607
CTTTAACC	0.0746
ACGTTGAG	-0.132
AAGCCAAA	-0.0889
GCATCTTA	0.0891
CGCAGAGC	-0.103
CTAACTGC	-0.113
AACCCCCC	-0.183
ATGCCCCC	-0.0837
AAAAGCGA	0.248
GTCCTTGA	-0.15

Sequence	PBM E-score
CCTATGCG	-0.073
AACCGTCG	-0.114
ATCCCGCA	0.126
CATCGTGC	-0.00012
CCATTACA	0.231
CGGAGCCA	-0.0291
GAGGGCAC	-0.234
ATTATAAG	0.123
GCTTAGGA	0.032
ACGGCAAA	0.277
AGCCCCCC	-0.242
CAATATCG	0.00591
ACCCTTTA	-0.0282
CCGAAAAC	0.0124
AAGACTGA	-0.0229
GAGACTAC	-0.186
ACATACAG	0.0443
CCAATTAC	0.161
AATGGTAG	0.174
GACCACAA	0.00676
GTCGCTGA	0.0069
CATCAAGG	-0.0881
GTACTAAC	0.146
CTCCGTGA	-0.0941
ACCTACAG	-0.0305

Sequence	PBM E-score
ATGTTTCG	0.366
CGTGGTAA	-0.0665
ATTTGTGC	0.0998
CCACCTGG	-0.129
ACCGCTAT	-0.0646
TAAGGAGA	-0.159
ATCCACCG	0.0495
CCCTTGAA	-0.0711
CAGACTGC	0.0705
GTGAATGA	0.0722
ACTTTGGG	0.0211
AAGGTACG	-0.181
AGAGATAG	-0.063
GCCGGGCA	-0.141
ATACTTGA	-0.122
TCTAAGAA	0.11
ACAATTAC	0.087
AGACCGCG	-0.0736
ACTCGTAG	-0.0901
GCCAGCGC	-0.00583
AACCCCTA	0.00675
AGTCAGAC	-0.142
GAAAATGC	0.017
CCTATCAG	-0.183
AGCCGATC	0.15

Sequence	PBM E-score
CAGATACC	-0.135
ATCAACGG	0.148
ACTGGTTG	0.0694
GCAATGCA	-0.0515
AGAGCCTG	-0.24
GGGGCGGA	0.404
TACACTCA	0.107
CATCCGGA	-0.123
ACCCACCA	0.0136
ATGTCGAA	0.0355
AGACTCAA	-0.12
CTAAAACA	0.355
CCTCGGTC	-0.103
CATTAGAG	-0.0419
CTTAGAAC	-0.126
AATGAATG	0.292
CGAATGGA	-0.00694
TGTTTTAA	0.364
CATACACA	-0.13
AATTAAAA	0.308
ATTCCCGA	0.17
ACGTTTAC	-0.072
GTCCACCA	-0.342
CAGTTTGG	-0.031
GCGTGAGC	-0.0363

Sequence	PBM E-score
CCTCTTTC	-0.0876
CATTACAC	0.0891
GGTTCTAA	0.0575
CGATATGC	0.0118
AAGTGGCG	-0.00032
CATTCTGG	-0.0361
CTGAAGGA	-0.0367
CTCTAACA	0.0177
CTCTAGTA	-0.0968
AATTCTTC	0.114
ACCACGAT	0.0269
GCTCGTGA	0.0372
AGTAGTCC	-0.103
AAAAGCAG	0.0867
GGTGATAC	0.0554
ACCGCGTC	-0.0299
TATCGTAA	0.161
AAAGGTTA	-0.0226
ACCGCCGC	0.0865
ATTAGCAA	0.154
CCGAGAGC	-0.0913
CTAACCTC	-0.0539
AGGCCCAT	-0.0986
GAGGCCCC	-0.18
AAAGGAAC	0.00662

Sequence	PBM E-score
GCGCCCAA	-0.061
TCTATAGA	-0.21
GCGAAACC	0.179
ACGGGTAA	-0.0262
CAGCTTGG	-0.044
GCATGGCA	0.0131
CACCGCAC	-0.00376
CTGCGTAC	-0.171
CCCAAGCC	-0.0593
AATCGATT	0.118
CAGCCACA	-0.00088
CTGGCACC	-0.177
CATGAACG	-0.128
AGTCTCAC	-0.0677
GGGGGCGA	-0.311
ATTATCAC	0.134
TATCTTAA	0.212
AATACGTA	0.153
CCAGATGA	0.0714
TAGGTCCA	-0.205
ACGGGAGC	-0.111
CACAGCAG	0.112
ATAAGGAC	-0.015
CAACGGTA	-0.109
ACACGTGC	-0.00451

Sequence	PBM E-score
ATCATGCA	-0.125
CTCAATTC	0.0654
CTCACGAG	-0.0739
AGAGGTTC	0.102
GCGAAACA	0.134
ACCATTGC	0.0901
CGAGTTAC	0.0926
GGTGTTAA	0.126
GCCGGTCA	0.0635
AAGGCCAT	-0.0634
CTGCGCAC	0.0412
CCTCTTGA	0.00072
GGCCTGTA	-0.102
GTGGGGAA	0.129
ACGATCGT	0.0232
AGAACCAC	-0.143
GTGTGTAA	0.137
CCAAGCAC	-0.00196
GCCCGAGA	-0.0722
CAACTTTA	0.161
GAAACGGC	0.229
ACTACATC	-0.0411
